# Measured values taken from PubChem BioAssay AID445 (National Center for Advancing Translational Sciences (NCATS), 2006).
# Hit rate of the full screen: of about 110,000 compounds, about 40 (0.04%) were called active. This list was built around the results that the source calls inconclusive (neither active nor inactive); the mix of calls is not that of the screen. Calls follow the shape of the dose curve; as a rule, active = well fitted curve in the direction sought with a large enough effect in the signal ratio (not every such curve was filed as active); inconclusive = small, poorly fitted or top-dose-only effect, or a change in a side signal; inactive = flat fitted curve, though single readings scatter; the % refers to the signal ratio. Where the call is inconclusive, the potency comes from a doubtful curve fit.
# Test: IkB Signaling;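 as to IkBa stabilization activation: 0% = basal untreated cells and 100% = reference inhibitor full response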
# Conditions: ABC-DLBCL IkBa-CBG/CBR dual luciferase ratio (green luciferase fused to IkBa over red control in OCI-Ly3 lymphoma cells), 4 h; IkBa stabilization activation: at 57.1 µM (top of the series), scaled: untreated 0%, proteasome inhibitor 100% unless noted
# Procedure, shortened: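 Luminescence ratio of IκBα-fused green versus native red beetle luciferase in OCI-Ly3 cells, 4 h post-doxycycline with compound; red signal alone, scaled from basal (0%) to zero light (-100%), flagged nonspecific or cytotoxic effects.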
# Potency is read from the fitted curve at half-maximal effect.
Compound,IkBa stabilization activation,Potency
Cc1cc(C)c2cc(C#N)c(SCC(=O)NCc3ccco3)nc2c1,inconclusive: 14.3% [signal activator],
COc1ccc(-n2ccn(CC(=O)Nc3ccc(C)cc3C)c(=O)c2=O)cc1,inconclusive: 1.95% [signal inhibitor],
CCCc1nnc(NC(=O)C(CC)Sc2nnc3c4ccccc4n(C)c3n2)s1 (stereo unspecified),inactive,
COc1ccc(CNC(=O)c2sc3nc4n(c(=O)c3c2C)CCC4)cc1,inactive,
CCCCOC(=O)C1C2C=C[C@]3(CN(CCCOC)C(=O)[C@H]13)O2 (stereo partly specified),,"inconclusive: 3.16 µM [signal inhibitor, full curve]"
CC(C)(C)c1ccc(C(=O)NC(Cc2c[nH]c3ccccc23)C(=O)OCC(=O)c2ccc(Br)cc2)cc1 (stereo unspecified),inconclusive: 0.57% [signal inhibitor],
O=C(Nc1cccc2c1CCCC2)N1CCOc2ccc(Cl)cc21,inconclusive: 5.43% [signal inhibitor],
CC(=O)NCCNc1nc(-c2ccc3c(c2)OCO3)nc2ccccc12,"inactive: 0.781% [at 11.4 µM, scaled: untreated 0%, proteasome inhibitor 100%]",
COCn1c(-c2cccc(Br)c2)nc2ccccc21,inactive,
N#C/C(=C\c1ccc(-c2cccc(Cl)c2)o1)C(=O)Nc1cccc(C(F)(F)F)c1,inactive,
Cc1cccc(C(C)C)c1NC(=O)c1ccc2c(c1)CCCN2S(C)(=O)=O,inconclusive: 3.53% [signal inhibitor],
Cc1ccc(S(=O)(=O)N(CC(=O)NCCSc2ccc(Cl)cc2)c2cccc(Cl)c2)cc1,inconclusive: 4.89% [signal inhibitor],
CCc1cc(=O)[nH]c(SCc2nc(-c3ccc(C(F)(F)F)cc3)no2)n1,inconclusive: -2.17% [signal inhibitor],
COc1ccc(N2CCN(C(c3ccc(F)cc3)c3sc4nc(-c5ccco5)nn4c3O)CC2)cc1 (stereo unspecified),inconclusive: 2.84% [signal inhibitor],
Cn1c(C(=O)NCc2cccc(Cl)c2)cc2oc3ccccc3c21,inconclusive: -0.653% [signal inhibitor],
CC(=O)c1ccc(N2CCN(C(=O)CCCn3c(=O)[nH]c4ccsc4c3=O)CC2)cc1,inconclusive: 0.0584% [signal inhibitor],
O=C(Cc1cn2ccsc2n1)Nc1ccccc1Oc1ccccc1,inactive,
CCC(=C(CC)c1ccc(O)cc1)c1ccc(O)cc1,,"inconclusive: 15.8 µM [rising, partial curve]"
Cc1nn(CC(=O)NCc2ccc(N(C)C)cc2)c(=O)c2nn(-c3ccccc3)c(C)c12,inactive,
COc1ccc(C(CC(=O)Nc2ccc(Br)cn2)N2Cc3ccccc3C2=O)cc1 (stereo unspecified),inconclusive: 0.662% [signal inhibitor],
COc1ccccc1CCNC(=O)C1CCN(c2nnc(C)c3c(C)n(-c4ccc(C)cc4)nc23)CC1,inconclusive: -1.28% [signal inhibitor],
CCOc1ccccc1NC(=O)N1CCC(c2nc3ccccc3[nH]2)CC1,inconclusive: 2.56% [signal inhibitor],

Compound,IkBa stabilization activation,Potency
Cc1ccc(Cn2c(CN3CCN(c4cccc(Cl)c4)CC3)nc3c2c(=O)n(C)c(=O)n3C)cc1,inconclusive: 3.14% [signal inhibitor],
Cc1cc2cc(CNC(=O)c3ccc4c(c3)OCO4)ccc2[nH]1,inconclusive: 5.52% [signal inhibitor],
O=C(Nc1nc(-c2ccc(S(=O)(=O)N3CCCC3)cc2)cs1)c1cccs1,inconclusive: 2.18% [signal inhibitor],
CC(C)c1cc(-c2nc(-c3cccc(Cl)c3)no2)n[nH]1,,inconclusive: 25.1 µM [signal inhibitor]
COc1ccc(NC(=O)CSc2nnc(COc3ccccc3)n2Cc2ccco2)cc1OC,inconclusive: 0.653% [signal inhibitor],
CCOc1ccc(CNC(=O)CSc2c3c(nc4ccc(Cl)cc24)CCCC3)cc1,inconclusive: 2.68% [signal inhibitor],
O=C(O)C/C(=C\c1ccccc1)C(=O)O,"inactive: 0.432% [at 11.4 µM, scaled: untreated 0%, proteasome inhibitor 100%]",
CCCOc1cccc(C(=O)Nc2cccc(NC(=O)c3ccc(Cl)cc3Cl)c2)c1,inconclusive: 5.35% [signal inhibitor],
Cc1ccc(C(C)C)c(OCC(=O)Nc2ccc(O)c(-c3nc4cc(Cl)ccc4o3)c2)c1,inactive,
CCCCNc1cc(NC(C)=O)cc2cc(OC)c(OC)cc12,inconclusive: 0.82% [signal inhibitor],
O=c1ccc2cc3ccoc3cc2o1,"inactive: -0.0204% [at 11.4 µM, scaled: untreated 0%, proteasome inhibitor 100%]",
O=C(Cn1cc(C(=O)c2cccs2)c2ccccc21)Nc1ccc(Br)cc1,,inconclusive: 10 µM [signal inhibitor]
CCN1C(=O)c2ccccc2S(=O)c2ccc(C(=O)NCc3ccc(Cl)cc3)cc21 (stereo unspecified),inconclusive: 1.28% [signal inhibitor],
CCN(c1cccc(C)c1)S(=O)(=O)c1c(C)nc2sc(C)cn2c1=O,inconclusive: 1.01% [signal inhibitor],
O=C1CCSC2(C(=O)N(Cc3ccc(F)cc3)c3ccccc32)N1c1cccc(F)c1 (stereo unspecified),inactive,
COc1ccc(Cl)cc1NC(=O)CSc1nnc(Cc2cccn2C)n1-c1ccc(F)cc1,inconclusive: 2.54% [signal inhibitor],
C/C(=N/O)c1ccc2cc(Br)c3ccccc3c2c1,"inactive: 0.885% [at 11.4 µM, scaled: untreated 0%, proteasome inhibitor 100%]",
CN=c1nc(-c2ccccc2)n(-c2ccccc2)s1,,"inconclusive: 15.8 µM [signal inhibitor, partial curve, poor fit]"
Cc1ccc(OCC(=O)Nc2ccc(O)c(C(=O)O)c2)cc1C,,"inconclusive: 31.6 µM [signal inhibitor, partial curve]"
CN(C)Cc1ccccc1-c1nc(N(C)C)c2ccccc2n1,"inactive: -5.53% [at 11.4 µM, scaled: untreated 0%, proteasome inhibitor 100%]",
Cc1nn(-c2ccc(F)cc2)c2sc(C(=O)OCC(=O)N3CCC(C)CC3)cc12,inconclusive: 9.03% [signal inhibitor],
COc1ccc(-c2nc(C#N)c(NCCc3ccccc3)o2)cc1OC,inconclusive: 2.44% [signal inhibitor],

Compound,IkBa stabilization activation,Potency
Cn1cccc1C(=O)OCC(=O)c1cc2ccccc2o1,inconclusive: 1.97% [signal inhibitor],
COc1ccccc1CNC(=O)C1CCN(c2nnc(C)c3c(C)n(-c4ccccc4)nc23)CC1,inconclusive: 1.04% [signal inhibitor],
CC(C)CC(=O)OCc1cc(=O)n2nc(C3CCCCC3)sc2n1,inconclusive: 1.95% [signal inhibitor],
Cc1ccc(NC(=O)CN2C(=O)CC(c3ccc(C)c(C)c3)=Nc3ccccc32)cc1,inconclusive: 0.532% [signal inhibitor],
CCC(CC)C(=O)Nc1cc(-c2nc3cccnc3s2)ccc1C,inactive,
O=C(c1cccc(C(=O)N2CCN(c3ccccc3)CC2)c1)N1CCN(c2ccccc2)CC1,inconclusive: 2.44% [signal inhibitor],
Cc1cc(C(=O)Nc2nc3c(s2)CCCC3)no1,,"inconclusive: 25.1 µM [signal inhibitor, single point]"
COc1ccc(CCNC(=O)c2c(C)oc3ncn(CC(C)C)c(=O)c23)c(OC)c1,inactive,
Cc1ccc2nc(COc3ccccc3NC(=O)c3ccccc3C)cc(=O)n2c1,inconclusive: -0.578% [signal inhibitor],
COc1ccc(-c2nnc(SCC(=O)Nc3cc(OC)ccc3OC)nc2-c2ccc(OC)cc2)cc1,inconclusive: 1.62% [signal inhibitor],
COc1ccccc1CN(Cc1cc2cc(C)ccc2[nH]c1=O)Cc1nnnn1Cc1ccco1,,"inconclusive: 12.6 µM [signal inhibitor, partial curve]"
Cc1cccc(CCNC(=O)c2ccc3c(c2)nc2n3CCC(C)C2)c1 (stereo unspecified),inconclusive: -4.45% [signal inhibitor],
COc1ccc(OC)c(NC(=O)c2ccc3c(SCC(=O)O)c4c(nc3c2)CCCC4)c1,,inconclusive: 31.6 µM [signal inhibitor]
Cc1cccc(-c2noc(-c3ccc(NCc4ccco4)c([N+](=O)[O-])c3)n2)c1,inconclusive: -1.89% [signal inhibitor],
CCN(CC)S(=O)(=O)c1ccc(NC2CCCc3ccccc32)nc1 (stereo unspecified),inactive,
CCCCCCCCCCCCCCCC(=O)NC[C@@H](COP(=O)([O-])OCC[N+](C)(C)C)OCC,inactive,
COc1cc(SC)ccc1C(=O)Nc1ccc2c(c1)OCCO2,inconclusive: 9.87% [signal inhibitor],
COc1ccc(-n2c(/C=C/c3cccc(C(F)(F)F)c3)nc3ccccc3c2=O)cc1Cl,inconclusive: 0.389% [signal inhibitor],
COc1ccc(-c2cc(C(=O)N3CCOCC3)no2)cc1OC,inactive,
COc1cccc2cc(C(C)=O)c(=O)oc12,inactive,
Cn1cc(S(=O)(=O)N2CCCCCC2)cc1C(=O)N1CCN(c2cccc(C(F)(F)F)c2)CC1,inconclusive: -0.463% [signal inhibitor],
CN(C)c1ccc(NC(=O)c2ccc(COc3cccc(Cl)c3)o2)cc1,inconclusive: 4.39% [signal inhibitor],
